Target: T1, human FXR (Homo sapiens, UniProt Q96RI1)
T1 construct: characterized in a full-length (fl) FXR reporter gene assay in HeLa cells; expressed in transfected cells; host or cells: HeLa
T1 sequence (Q96RI1 1-486): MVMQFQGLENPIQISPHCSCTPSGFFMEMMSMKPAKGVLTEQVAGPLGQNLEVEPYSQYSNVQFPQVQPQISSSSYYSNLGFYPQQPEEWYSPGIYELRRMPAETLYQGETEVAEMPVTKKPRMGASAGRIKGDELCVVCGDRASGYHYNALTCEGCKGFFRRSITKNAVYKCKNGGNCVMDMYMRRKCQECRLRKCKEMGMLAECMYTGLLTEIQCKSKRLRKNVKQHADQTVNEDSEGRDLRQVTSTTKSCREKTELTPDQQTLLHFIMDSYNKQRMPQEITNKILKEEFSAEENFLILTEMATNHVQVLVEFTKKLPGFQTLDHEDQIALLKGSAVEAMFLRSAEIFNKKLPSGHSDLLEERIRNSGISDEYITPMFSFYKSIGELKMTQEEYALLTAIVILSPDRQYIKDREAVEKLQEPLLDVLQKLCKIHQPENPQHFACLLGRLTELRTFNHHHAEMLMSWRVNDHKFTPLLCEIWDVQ
T1 sequence (P19793 1-462 partner): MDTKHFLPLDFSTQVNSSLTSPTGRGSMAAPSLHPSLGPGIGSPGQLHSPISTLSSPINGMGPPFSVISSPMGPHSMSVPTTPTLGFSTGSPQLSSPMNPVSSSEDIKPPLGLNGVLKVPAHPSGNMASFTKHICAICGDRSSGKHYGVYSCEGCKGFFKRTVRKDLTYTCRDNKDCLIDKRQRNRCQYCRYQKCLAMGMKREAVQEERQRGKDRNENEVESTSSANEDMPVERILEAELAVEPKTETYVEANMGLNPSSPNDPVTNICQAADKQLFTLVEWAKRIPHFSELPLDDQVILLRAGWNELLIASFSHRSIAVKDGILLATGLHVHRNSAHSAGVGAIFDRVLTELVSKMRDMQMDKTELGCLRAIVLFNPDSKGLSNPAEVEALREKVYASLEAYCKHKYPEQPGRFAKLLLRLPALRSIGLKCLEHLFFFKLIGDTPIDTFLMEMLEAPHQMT
Test: full-length FXR reporter gene (transactivation) assay in HeLa cells
Type: cell-based
Text: This assay is based on a reporter construct containing a firefly luciferase under the control of the FXR response element from bile salt export protein (BSEP). FXR and its hetero dimer partner retinoid X receptor (RXR) as expression constructs under the control of a CMV promoter as well as a constitutively expressed renilla luciferase (SV40 promoter) for normalization and toxicity control were co-transfected. […] The sEH inhibitory potency of the test compounds was quantified in a fluorescence-based assay using recombinant enzyme and the fluorogenic sEH substrate PHOME^37 that is hydrolyzed to a fluorescent 6-methoxynaphtaldehyde by sEH. […]
Assay procedure: HeLa cells were grown in DMEM high glucose supplemented with 10% FCS, sodium pyruvate (1 mM), penicillin (100 U/mL) and streptomycin (100 μg/mL) at 37° C. and 5% CO2. […] Luminescence was measured with a Tecan Infinite M200 luminometer (Tecan Deutschland GmbH, Crailsheim, Germany). […] EC50 and standard error of the mean values were calculated with the mean relative activation values of at least three independent experiments by SigmaPlot 10.0 (Systat Software GmbH, Erkrath, Germany) using a four parameter logistic regression.

Structure (SMILES): CC(C)(C)c1ccc(C(=O)NCc2ccc(NS(C)(=O)=O)cc2Cl)cc1 [compound 57, 4-(tert-Butyl)-N-(2-chloro-4-(methylsulfonamido)benzyl)benzamide]
- Emax (HeLa, read-out: FXR activation max. rel. activation (converted)): 35%
- EC50 (full-length FXR reporter gene assay, HeLa cells, read-out: FXR activation EC50): 20.4 ± 4.2 nM
